Here are results for 153 variants from a collection of fitness landscapes (doi:10.1016/j.celrep.2020.107928).

In all, about 81,000 sequences were measured (“one-hybrid fitness for binding parS DNA”: median about -0.17, highest 2% from about 0.51 on). Some of the results follow.

Sequences and labels used below:
B1: Caulobacter ParB omega fusion; a variant is named by its letters at X, in order, B8GW30 (parent)
chain: MESVVVGEPGMSEGRRGLGRGLSALLGEVDAAPAQAPGEQLGGSREAPIEILQRNPDQPRRTFREEDLEDLSNSIREKGVLQPILVRPSPDTAGEYQIVAGERAWRAAQRAGLKTVPIMVRELDDLAVLEIGIIENVQRADLNVLEEALSYKVLMEKFERTQENIAQTIGKSXSHVANXMRLLXLPDEVQSYLVSGELTAXHARAIAAAADPVALAKQIIEGGLSVRETEALARKAPNLSAGKSKGGRPPRVKDTDTQALESDLSSVLGLDVSIDHRGSTGTLTITYATLEQLDDLCNRLTRGI

This experiment covers variants of B1. Kind of experiment: one-hybrid fitness for binding parS DNA (scaled: cognate 1, non-cognate 0); higher = stronger binding. The following applies: with parS DNA site. The method in brief: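 Selection: bacterial one-hybrid in E. coli USO, HIS3 reporter with the site 19 bp from the promoter, 48 hours at 37°C on M9-minus-histidine plus 0.1 mM IPTG and 5 mM 3-AT. Libraries were Caulobacter ParB with four randomised specificity codons, sequenced on Illumina before and after selection. Fitness is the rescaled log change in variant-to-wild-type read ratio, anchored to the cognate and non-cognate sites.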
Regarding DLMC, the “one-hybrid fitness for binding parS DNA” value is not above 0.2.

In the case of WRNC, the “one-hybrid fitness for binding parS DNA” value was not above 0.2.

In the case of YSKR, the “one-hybrid fitness for binding parS DNA” value is not above 0.2.

RFRC: the “one-hybrid fitness for binding parS DNA” value is 0.969.

As for ESQH, the “one-hybrid fitness for binding parS DNA” value was 0.412.

Turning to YAPF, the “one-hybrid fitness for binding parS DNA” value was not above 0.2.

Regarding DISW, the “one-hybrid fitness for binding parS DNA” value was not above 0.2.

Turning to PTMF, the “one-hybrid fitness for binding parS DNA” value was not above 0.2.

Regarding ISMS, the “one-hybrid fitness for binding parS DNA” value is not above 0.2.

As to HYWT, the “one-hybrid fitness for binding parS DNA” value is not above 0.2.

For the variant ITLG, the “one-hybrid fitness for binding parS DNA” value is not above 0.2.

On to RDPK, for which the “one-hybrid fitness for binding parS DNA” value was not above 0.2.

As for DASY, the “one-hybrid fitness for binding parS DNA” value is not above 0.2.

For the variant KLLD, the “one-hybrid fitness for binding parS DNA” value is not above 0.2.

Regarding DPFR, the “one-hybrid fitness for binding parS DNA” value is not above 0.2.

FQTS: the “one-hybrid fitness for binding parS DNA” value is not above 0.2.

Take HQTL: the “one-hybrid fitness for binding parS DNA” value was not above 0.2.

Take QIVR: the “one-hybrid fitness for binding parS DNA” value was not above 0.2.

For QIRQ, the “one-hybrid fitness for binding parS DNA” value is not above 0.2.

On to QGSN, for which the “one-hybrid fitness for binding parS DNA” value is not above 0.2.

In the case of PLDS, the “one-hybrid fitness for binding parS DNA” value is not above 0.2.

For RFEN, the “one-hybrid fitness for binding parS DNA” value was found to be 0.342.

For YYRE, the “one-hybrid fitness for binding parS DNA” value is not above 0.2.

As to GDKT, the “one-hybrid fitness for binding parS DNA” value was not above 0.2.

On to CCAK, for which the “one-hybrid fitness for binding parS DNA” value is not above 0.2.

As to QTEE, the “one-hybrid fitness for binding parS DNA” value is not above 0.2.

For VPAT, the “one-hybrid fitness for binding parS DNA” value is not above 0.2.

As for AWSH, the “one-hybrid fitness for binding parS DNA” value was not above 0.2.

For AVFD, the “one-hybrid fitness for binding parS DNA” value was not above 0.2.

DERT: the “one-hybrid fitness for binding parS DNA” value was not above 0.2.

Regarding RMSE, the “one-hybrid fitness for binding parS DNA” value is not above 0.2.

Regarding VPKT, the “one-hybrid fitness for binding parS DNA” value was not above 0.2.

Turning to ISKI, the “one-hybrid fitness for binding parS DNA” value is not above 0.2.

For PHSP, the “one-hybrid fitness for binding parS DNA” value is not above 0.2.

Take NEWR: the “one-hybrid fitness for binding parS DNA” value is not above 0.2.

As for RGII, the “one-hybrid fitness for binding parS DNA” value is not above 0.2.

Consider YYSP, for which the “one-hybrid fitness for binding parS DNA” value was not above 0.2.

For the variant TACF, the “one-hybrid fitness for binding parS DNA” value was not above 0.2.

With SSDP, the “one-hybrid fitness for binding parS DNA” value is not above 0.2.

Take QWRF: the “one-hybrid fitness for binding parS DNA” value is not above 0.2.

RCIA: the “one-hybrid fitness for binding parS DNA” value turned out to be 0.551.

For LLRS, the “one-hybrid fitness for binding parS DNA” value was not above 0.2.

With FTRT, the “one-hybrid fitness for binding parS DNA” value is not above 0.2.

For the variant PYRC, the “one-hybrid fitness for binding parS DNA” value was not above 0.2.

For THAD, the “one-hybrid fitness for binding parS DNA” value was not above 0.2.

MLTK: the “one-hybrid fitness for binding parS DNA” value is not above 0.2.

For KSQH, the “one-hybrid fitness for binding parS DNA” value was not above 0.2.

In the case of NTPG, the “one-hybrid fitness for binding parS DNA” value was not above 0.2.

On to LLIM, for which the “one-hybrid fitness for binding parS DNA” value was not above 0.2.

Turning to MPFK, the “one-hybrid fitness for binding parS DNA” value is not above 0.2.

For the variant FYTG, the “one-hybrid fitness for binding parS DNA” value was not above 0.2.

Consider HIFY, for which the “one-hybrid fitness for binding parS DNA” value was not above 0.2.

As to EIFS, the “one-hybrid fitness for binding parS DNA” value is not above 0.2.

As to VQST, the “one-hybrid fitness for binding parS DNA” value was not above 0.2.

As to QAMN, the “one-hybrid fitness for binding parS DNA” value is not above 0.2.

Turning to AICT, the “one-hybrid fitness for binding parS DNA” value is not above 0.2.

Consider ISPS, for which the “one-hybrid fitness for binding parS DNA” value is not above 0.2.

Regarding INTF, the “one-hybrid fitness for binding parS DNA” value is not above 0.2.

With QALQ, the “one-hybrid fitness for binding parS DNA” value was not above 0.2.

Turning to PCDG, the “one-hybrid fitness for binding parS DNA” value was not above 0.2.

FFYG: the “one-hybrid fitness for binding parS DNA” value is not above 0.2.

As for FRRW, the “one-hybrid fitness for binding parS DNA” value is not above 0.2.

As to QKTW, the “one-hybrid fitness for binding parS DNA” value was not above 0.2.

For GHNQ, the “one-hybrid fitness for binding parS DNA” value is not above 0.2.

Consider RHMS, for which the “one-hybrid fitness for binding parS DNA” value was determined as 0.966.

In the case of LYCL, the “one-hybrid fitness for binding parS DNA” value is not above 0.2.

In the case of QCTG, the “one-hybrid fitness for binding parS DNA” value is not above 0.2.

Regarding SPTC, the “one-hybrid fitness for binding parS DNA” value is not above 0.2.

As to HDVL, the “one-hybrid fitness for binding parS DNA” value is not above 0.2.

For the variant TIRN, the “one-hybrid fitness for binding parS DNA” value was not above 0.2.

On to IYHD, for which the “one-hybrid fitness for binding parS DNA” value is not above 0.2.

On to DQRS, for which the “one-hybrid fitness for binding parS DNA” value is not above 0.2.

Take RWSV: the “one-hybrid fitness for binding parS DNA” value is not above 0.2.

Turning to GSCI, the “one-hybrid fitness for binding parS DNA” value is not above 0.2.

Regarding LPHC, the “one-hybrid fitness for binding parS DNA” value was not above 0.2.

On to QNCG, for which the “one-hybrid fitness for binding parS DNA” value was not above 0.2.

Turning to QVAS, the “one-hybrid fitness for binding parS DNA” value is not above 0.2.

As to KRTE, the “one-hybrid fitness for binding parS DNA” value is not above 0.2.

For the variant CIEY, the “one-hybrid fitness for binding parS DNA” value is not above 0.2.

In the case of MSGT, the “one-hybrid fitness for binding parS DNA” value is not above 0.2.

With HGML, the “one-hybrid fitness for binding parS DNA” value was not above 0.2.

On to RGPY, for which the “one-hybrid fitness for binding parS DNA” value was not above 0.2.

On to KTLM, for which the “one-hybrid fitness for binding parS DNA” value was not above 0.2.

Regarding PPAD, the “one-hybrid fitness for binding parS DNA” value is not above 0.2.

As to SENC, the “one-hybrid fitness for binding parS DNA” value is not above 0.2.

For the variant GNPA, the “one-hybrid fitness for binding parS DNA” value was not above 0.2.

HMVY: the “one-hybrid fitness for binding parS DNA” value is not above 0.2.

KARR: the “one-hybrid fitness for binding parS DNA” value was not above 0.2.

With PISL, the “one-hybrid fitness for binding parS DNA” value is not above 0.2.

For the variant ARNK, the “one-hybrid fitness for binding parS DNA” value was not above 0.2.

For MPLH, the “one-hybrid fitness for binding parS DNA” value is not above 0.2.

YKFV: the “one-hybrid fitness for binding parS DNA” value was not above 0.2.

Regarding FSYG, the “one-hybrid fitness for binding parS DNA” value was not above 0.2.

On to QQRV, for which the “one-hybrid fitness for binding parS DNA” value is not above 0.2.

YSHN: the “one-hybrid fitness for binding parS DNA” value was not above 0.2.

Turning to QSRD, the “one-hybrid fitness for binding parS DNA” value is not above 0.2.

As for RTVG, the “one-hybrid fitness for binding parS DNA” value was 0.979.

IHNV: the “one-hybrid fitness for binding parS DNA” value was not above 0.2.

For VYAW, the “one-hybrid fitness for binding parS DNA” value is not above 0.2.

Consider IIKT, for which the “one-hybrid fitness for binding parS DNA” value was not above 0.2.

Consider SAHM, for which the “one-hybrid fitness for binding parS DNA” value was not above 0.2.

Take SYSN: the “one-hybrid fitness for binding parS DNA” value was not above 0.2.

In the case of FPGV, the “one-hybrid fitness for binding parS DNA” value is not above 0.2.

As to TIGT, the “one-hybrid fitness for binding parS DNA” value was not above 0.2.

For FTKG, the “one-hybrid fitness for binding parS DNA” value was not above 0.2.

Regarding AEAR, the “one-hybrid fitness for binding parS DNA” value was not above 0.2.

Take YTKV: the “one-hybrid fitness for binding parS DNA” value was not above 0.2.

For RNAI, the “one-hybrid fitness for binding parS DNA” value is not above 0.2.

Turning to RHHH, the “one-hybrid fitness for binding parS DNA” value is not above 0.2.

On to RMWD, for which the “one-hybrid fitness for binding parS DNA” value was not above 0.2.

Take NDYF: the “one-hybrid fitness for binding parS DNA” value is not above 0.2.

Regarding ADLY, the “one-hybrid fitness for binding parS DNA” value was not above 0.2.

With HMFT, the “one-hybrid fitness for binding parS DNA” value is not above 0.2.

As for SPAD, the “one-hybrid fitness for binding parS DNA” value is not above 0.2.

On to VLSF, for which the “one-hybrid fitness for binding parS DNA” value is not above 0.2.

Take KMTG: the “one-hybrid fitness for binding parS DNA” value was not above 0.2.

Turning to VVHA, the “one-hybrid fitness for binding parS DNA” value was not above 0.2.

In the case of ATCV, the “one-hybrid fitness for binding parS DNA” value is not above 0.2.

For the variant DMLL, the “one-hybrid fitness for binding parS DNA” value was not above 0.2.

On to RMQC, for which the “one-hybrid fitness for binding parS DNA” value came out at 1.02.

In the case of RAQP, the “one-hybrid fitness for binding parS DNA” value is not above 0.2.

As to PERM, the “one-hybrid fitness for binding parS DNA” value is not above 0.2.

Consider CRLT, for which the “one-hybrid fitness for binding parS DNA” value is not above 0.2.

FNPG: the “one-hybrid fitness for binding parS DNA” value is not above 0.2.

On to SLVF, for which the “one-hybrid fitness for binding parS DNA” value was not above 0.2.

For NVST, the “one-hybrid fitness for binding parS DNA” value is not above 0.2.

For the variant PSKT, the “one-hybrid fitness for binding parS DNA” value was not above 0.2.

For the variant MACV, the “one-hybrid fitness for binding parS DNA” value was not above 0.2.

For the variant NPKS, the “one-hybrid fitness for binding parS DNA” value was not above 0.2.

Take NFTR: the “one-hybrid fitness for binding parS DNA” value is not above 0.2.

On to GIWT, for which the “one-hybrid fitness for binding parS DNA” value is not above 0.2.

For CGAT, the “one-hybrid fitness for binding parS DNA” value is not above 0.2.

Consider YSCR, for which the “one-hybrid fitness for binding parS DNA” value was not above 0.2.

For PESF, the “one-hybrid fitness for binding parS DNA” value is not above 0.2.

Turning to PQMI, the “one-hybrid fitness for binding parS DNA” value was not above 0.2.

KTRM: the “one-hybrid fitness for binding parS DNA” value is not above 0.2.

For the variant PVRG, the “one-hybrid fitness for binding parS DNA” value was not above 0.2.

In the case of HNMV, the “one-hybrid fitness for binding parS DNA” value was not above 0.2.

For the variant WMIT, the “one-hybrid fitness for binding parS DNA” value is not above 0.2.

For SKLH, the “one-hybrid fitness for binding parS DNA” value is not above 0.2.

For INQF, the “one-hybrid fitness for binding parS DNA” value was not above 0.2.

RCHT: the “one-hybrid fitness for binding parS DNA” value was 0.906.

In the case of MVPA, the “one-hybrid fitness for binding parS DNA” value is not above 0.2.

Turning to PLKC, the “one-hybrid fitness for binding parS DNA” value was not above 0.2.

Take QIAK: the “one-hybrid fitness for binding parS DNA” value is not above 0.2.

On to FKWG, for which the “one-hybrid fitness for binding parS DNA” value was not above 0.2.

In the case of PTPR, the “one-hybrid fitness for binding parS DNA” value is not above 0.2.

Regarding CETW, the “one-hybrid fitness for binding parS DNA” value was not above 0.2.

On to VPVE, for which the “one-hybrid fitness for binding parS DNA” value was not above 0.2.

In the case of PDGP, the “one-hybrid fitness for binding parS DNA” value is not above 0.2.

Take QKVE: the “one-hybrid fitness for binding parS DNA” value was not above 0.2.

Regarding YNNL, the “one-hybrid fitness for binding parS DNA” value is not above 0.2.

FVKP: the “one-hybrid fitness for binding parS DNA” value is not above 0.2.
